# From PubChem BioAssay AID624296 (National Center for Advancing Translational Sciences (NCATS), 2012)
# About 9,900 (2.8%) of roughly 350,000 compounds were called active. This list was built around the results that the source calls inconclusive (neither active nor inactive); the mix of calls is not that of the screen. Calls follow the shape of the dose curve; as a rule, active = well fitted activation curve with a large enough effect; inconclusive = small, poorly fitted or top-dose-only effect; inactive = no such curve, though single readings can be large or run the other way. No potency is given beside an inconclusive call; the fits are too rough.
# Assay: A quantitative high throughput screen for small molecules that induce DNA re-replication in MCF 10a normal breast cells. Also: nearly all actives have a fitted effect of over 50% in size.
# Details: MCF 10A DNA re-replication, Hoechst nuclear intensity, 48 h; series mostly up to 46.1 µM
# Potency is read from the fitted curve at half-maximal effect; tags tell the direction and shape of the fitted curve.
row,SMILES,Potency
1,COc1ccc(OC)c(C2=NNC(=NCc3ccc4c(c3)OCO4)SC2)c1,inactive
2,O=C1NC[C@H](Cc2ccccc2)N(CC2CCCCC2)C1=O,inactive
3,CC(=O)Nc1ccc(S(=O)(=O)N2CCN=C2SCc2ccc([N+](=O)[O-])cc2)cc1,"inconclusive [activator, partial curve, poor fit]"
4,Cc1ccccc1-c1cc(-c2ccccc2O)n[nH]1,"inconclusive [activator, single point]"
5,Cc1ccc(-n2ncc3c(N4CCN(c5ccccc5)CC4)ncnc32)c(C)c1,"inconclusive [activator, partial curve]"
6,COc1cc2c3c(c1)C(C)=CC(C)(C)N3C(=O)C2=O,"inconclusive [activator, single point]"
7,Cc1c(C(=O)Nc2nnc(C(F)(F)F)s2)oc2ccccc12,"inconclusive [activator, partial curve]"
8,O=C(NC(=S)N1CCN(c2ccccn2)CC1)c1ccccc1,inactive
9,COc1ccc(NC(=O)COC(=O)/C=C/c2ccc(OC)c(S(=O)(=O)N3CCOCC3)c2)cc1,"inconclusive [activator, partial curve, poor fit]"
10,COc1ccc(-c2nc3ccccn3c2CN2CCN(c3ccccc3F)CC2)cc1,"inconclusive [activator, single point]"
11,CCN(Cc1ccc(C#CCCO)cc1)CC1CCCN(CCc2cccc(OC)c2)C1 (configuration not stated),"inconclusive [activator, partial curve, poor fit]"
12,COc1ccc(-c2nnc(SCC(=O)NC(C)c3ccccc3)o2)cc1OC (configuration not stated),"inconclusive [activator, single point]"
13,O=C(Nc1cccc(C(=O)NC2CC2)c1)c1ccc(F)c(S(=O)(=O)N2CCOCC2)c1,"inconclusive [activator, partial curve, poor fit]"
14,CCOC(=O)c1[nH]c2ccc(OCC)cc2c1NC(=O)CN1CCN(c2ccccc2)CC1,"inconclusive [activator, full curve, poor fit]"
15,Cc1cc(NCCCCCCCNc2cc(C)nc3cc([N+](=O)[O-])ccc23)c2ccc([N+](=O)[O-])cc2n1,active: 3.66 µM
16,O=C(c1ccccc1)c1c[nH]c(C(=O)C(Cl)(Cl)Cl)c1,"inconclusive [activator, single point]"
17,CSc1nc2ccccc2cc1/C=C(\C#N)c1ccc(Cl)cc1Cl,"inconclusive [activator, full curve, poor fit]"
18,Cc1c(C)n(Cc2ccc(F)cc2)c2ccc(C(=O)NCCN3CCOCC3)cc12,inactive
19,O=C(COc1ccccc1)Nc1cccc(-c2nnc(-c3ccccc3)o2)c1,inactive
20,CC(OC(=O)C1CSC2(C)CCC(=O)N12)C(=O)Nc1cccc(C#N)c1 (configuration not stated),inactive
21,CCOC(=O)c1cnn(-c2nc3c(C)cccc3s2)c1C(F)(F)F,"inconclusive [activator, single point]"
22,CC(C)COc1ccc(C(=O)Nc2sc3c(c2C(=O)O)CC(C)(C)OC3)cc1,"inconclusive [activator, single point]"
23,O=C(OCC(=O)N1CCCCCC1)c1ccc(Cl)c(S(=O)(=O)N2CCCC2)c1,"inconclusive [activator, single point]"

row,SMILES,Potency
1,CCOC(=O)c1csc(NC(=O)c2cc(OC)c(OC)c(OC)c2)n1,"inconclusive [activator, single point]"
2,Cc1ccc(-c2cc(C(F)F)nc3sc4c(=O)[nH]cnc4c23)cc1,"inconclusive [activator, partial curve]"
3,CN1CC=C2C(C#N)=C(N)C(C#N)(C#N)C(c3cccc(Cl)c3Cl)C2C1 (configuration not stated),"inconclusive [activator, single point]"
4,Cc1ccc(NC(=O)c2nnn(-c3cccc(C(F)(F)F)c3)c2N)cc1,inactive
5,CCOC(=O)c1c(NC(=O)CSc2nnnn2C)sc(C)c1-c1ccc(C)cc1,"inconclusive [activator, full curve]"
6,CC(=O)C1=C(c2ccccc2)NC(=S)NC1c1cc(Cl)c(OC(C)C)c(Cl)c1 (configuration not stated),"inconclusive [activator, single point]"
7,CC(Nc1nc(N2CCOCC2)nc2ccccc12)c1ccccc1 (configuration not stated),"inconclusive [activator, single point]"
8,O=C(O)c1cc2c(N3CCC(Cc4ccccc4)CC3)ncnc2s1,"inconclusive [activator, partial curve]"
9,COc1cc2oc(=O)cc(-c3ccc(-c4ccc(OC(F)(F)F)cc4)cc3)c2c(OC)c1OC,"inconclusive [activator, full curve, poor fit]"
10,CC(C)COc1ccc(C(=O)OCCN2CCCCC2)cc1,"inconclusive [activator, partial curve]"
11,CCN(CC)c1ccc(-c2c(C#N)c(N)nc(OC)c2C#N)cc1,"inconclusive [activator, partial curve]"
12,Cc1cc(C)c2c(CCl)cc(=O)oc2c1,active: 5.17 µM
13,O=C1OCC(CO)(CO)N=C1NNc1ccccc1[N+](=O)[O-],inactive
14,Cc1ccc(OCC(=O)N(Cc2ccccc2)c2c(N)n(Cc3ccccc3)c(=O)[nH]c2=O)c(C)c1,"inconclusive [activator, single point]"
15,CCSc1cc(C)nc2c(-c3ccc(Cl)cc3)c(C)nn12,active: 14.6 µM
16,COC(=O)c1ccc(N2CN=C(c3ccc(C)cc3)NC2=S)cc1,active: 25.9 µM
17,O=C(CN1CCN(C(=O)c2ccccc2)CC1)Nc1ccc(Cl)cc1F,"inconclusive [activator, partial curve, poor fit]"
18,CCn1cc(C(=O)NCc2cccc(F)c2)c(=O)c2cc(F)c(N3CCN(C(=O)c4ccco4)CC3)cc21,"inconclusive [activator, single point]"
19,CCOc1ccc(CNC(=O)Cn2nc(C)c3c(C)n(-c4ccc(C)cc4)nc3c2=O)cc1,inactive
20,Cc1ccc(N2CC(C(=O)Nc3ccc(S(=O)(=O)N4CCCC4)cc3)CC2=O)cc1C (configuration not stated),"inconclusive [activator, single point]"
21,COC(=O)Cn1c2ccc(OC)cc2c2nc3ccccc3nc21,inactive
22,Cc1ccc(NC(=O)C(OC(=O)c2ccc(O)cc2)c2ccccc2)cc1Cl (configuration not stated),active: 25.9 µM
23,C=C1C(=O)C=C2CN(C(=O)c3ccccc3)[C@@](Cc3ccc(F)cc3)(C(=O)OC)[C@@H]12,active: 3.66 µM

row,SMILES,Potency
1,COc1ccc(NC(=O)CSc2nc3ccccc3nc2N2CCCC2)cc1Cl,active: 23.1 µM
2,COc1ccc(C(=O)COC(=O)[C@@H](NS(=O)(=O)c2ccccc2)C(C)C)cc1,"inconclusive [activator, full curve, poor fit]"
3,CC(C1CC1)N(Cc1ccccc1)C(=S)Nc1ccccc1Cl (configuration not stated),"inconclusive [activator, single point]"
4,Cc1ccc(-c2nnn(CC(=O)N3CCN(c4nc5ccccc5s4)CC3)n2)cc1,inactive
5,CC(C)c1ccc(C(=O)NC(=S)NCc2cccnc2)cc1,"inconclusive [activator, partial curve, poor fit]"
6,CCOc1ccccc1C(=O)NC(C(=O)Nc1cccnc1)C(C)C (configuration not stated),"inconclusive [activator, single point]"
7,CC(C)Oc1ccccc1NC(=O)CSc1nccn1C,inactive
8,COc1ccc(N(Cc2ccccc2)C(=O)CSc2nnc(Cn3nnc4ccccc43)o2)cc1,"inconclusive [activator, single point]"
9,CC(C)C(=O)N1CCN(c2ccc(NC(=O)c3ccco3)cc2Cl)CC1,"inconclusive [activator, single point]"
10,Cc1ccc(-n2cc(CNCCc3ncc(C)[nH]3)c(-c3ccc(F)cc3)n2)cc1,"inconclusive [activator, single point]"
11,Cc1ccc(-c2ccccc2NC(=O)CS(=O)CC(=O)Nc2ccc(C)c(Cl)c2)o1 (configuration not stated),active: 25.9 µM
12,Cc1ccc(C(=O)NC(=S)Nc2cc(-c3nc4ccccc4s3)ccc2C)cc1,"inconclusive [activator, partial curve, poor fit]"
13,Cc1cccc(C(=O)Nc2cccc(C(=O)N/N=C/c3ccccn3)c2)c1,inactive
14,CC(=O)OC(COc1cccc(C)c1)Cn1cnc2ccccc21 (configuration not stated),inactive
15,CC(C)(C)c1cnnn1-c1ccc(/C=N/Nc2ccc([N+](=O)[O-])cc2)cc1,"inconclusive [activator, single point]"
16,N#C/C(=C\c1cn(Cc2ccccc2F)c2ccccc12)C(=O)NCc1ccco1,active: 18.4 µM
17,C=C(C1=CCN(S(=O)C(C)(C)C)[C@H]1CCO)c1ccccc1 (some centres not stated),"inconclusive [activator, single point]"
18,Cc1ccc(C(=O)NCCCNC(=O)c2ccc(Cl)cc2)cn1,inactive
19,Cc1ccc(S(=O)(=O)NCC(c2ccc3c(c2)OCO3)N2CCN(c3ccccc3)CC2)cc1 (configuration not stated),"inconclusive [activator, single point]"
20,C=CCn1c(SCC(=O)Nc2cccc(S(N)(=O)=O)c2)nc2sc(C)c(C)c2c1=O,inactive
21,O=C(Cc1ccc2c(c1)OCCO2)Nc1cc(Cl)ccc1N1CCOCC1,"inconclusive [activator, partial curve]"
